# Results are given in words; binding and its absence hold for the method and conditions named. Some binding calls cover weakened binding; strength is not graded here.
# T1: 3nmt1-mECitrine-Ync13 (S. pombe) (UniProt O13683)
# T1 sequence: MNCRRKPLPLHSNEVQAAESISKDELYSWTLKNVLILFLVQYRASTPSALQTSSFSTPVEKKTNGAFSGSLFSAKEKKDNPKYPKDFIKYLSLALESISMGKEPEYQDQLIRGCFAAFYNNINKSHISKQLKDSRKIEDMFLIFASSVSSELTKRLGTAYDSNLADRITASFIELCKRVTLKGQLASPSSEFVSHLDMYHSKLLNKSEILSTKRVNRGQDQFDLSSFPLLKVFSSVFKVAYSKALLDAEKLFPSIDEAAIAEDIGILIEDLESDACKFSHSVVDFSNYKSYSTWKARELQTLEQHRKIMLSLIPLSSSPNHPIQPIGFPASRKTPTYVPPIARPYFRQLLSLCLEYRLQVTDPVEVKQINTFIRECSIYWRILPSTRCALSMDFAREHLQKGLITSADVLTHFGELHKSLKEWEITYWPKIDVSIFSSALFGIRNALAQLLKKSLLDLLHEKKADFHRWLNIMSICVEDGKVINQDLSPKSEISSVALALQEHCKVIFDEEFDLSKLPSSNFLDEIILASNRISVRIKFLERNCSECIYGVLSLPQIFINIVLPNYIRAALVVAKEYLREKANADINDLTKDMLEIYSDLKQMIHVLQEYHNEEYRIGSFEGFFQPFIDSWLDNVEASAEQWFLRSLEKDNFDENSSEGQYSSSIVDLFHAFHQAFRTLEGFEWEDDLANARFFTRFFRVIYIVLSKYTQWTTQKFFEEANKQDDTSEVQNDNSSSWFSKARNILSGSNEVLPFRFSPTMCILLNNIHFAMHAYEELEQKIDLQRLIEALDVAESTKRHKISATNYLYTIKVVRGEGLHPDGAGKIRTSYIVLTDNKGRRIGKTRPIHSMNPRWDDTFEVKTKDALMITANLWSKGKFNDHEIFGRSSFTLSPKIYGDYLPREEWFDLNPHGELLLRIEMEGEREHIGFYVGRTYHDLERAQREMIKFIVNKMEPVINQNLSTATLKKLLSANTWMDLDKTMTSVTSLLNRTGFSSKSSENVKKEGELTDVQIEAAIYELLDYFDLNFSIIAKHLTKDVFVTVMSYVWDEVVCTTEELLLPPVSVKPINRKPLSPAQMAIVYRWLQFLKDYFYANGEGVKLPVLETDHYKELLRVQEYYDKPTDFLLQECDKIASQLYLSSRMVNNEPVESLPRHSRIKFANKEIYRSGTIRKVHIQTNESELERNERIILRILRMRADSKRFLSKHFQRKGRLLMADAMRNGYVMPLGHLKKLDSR
# B1: Rga7-mCherry (protein, UniProt O94466 1-695)
# chain: MLSAPSSSTTPASPPTSPPNTTSSDDFAVLKEPKVEAILNSELGLAILNDRIKDYLLTCKELAGFFKKRSILEEESGKNLQKLAKSYLETFQSKHHSPQSFSASVITSMEIHEQLANHSLTLQKTLSAFSDQVIEFHKNAERKRKSIKEYAKKQENAYLEAVMQMDKSKSRFKGAETEYNRALDNKNTGDSQKKVGFFKPKSNAQLTKLEDEARLKAENAESDMHSKIENAQNVQKQLLCIHRPNYIKQFFSLQREIESSLIANYLRYTKLCESNTLLNGLTIRPQKPTPTNCGLQHALDNINANTDFVQYVLHASIKHEDNKNPTDASKTKIIQPPSSYGTGSSAGKTNPPVNPTIKVTAAIPSPLQNTNPAPSTFPNPSVASPAFPNSSTSNPSTAPASASPLASTLKPSTANDTNGSSSSSSSNPRTSSPLASNAENKPPVAQQSPPVLLPTLPPIQTTTIQTSREVAPPPSSINSNRAASPFRPTSVSPQPSSPTKSLLFGARLDAIILREHSNIPNIVMQCTSQVENFGLNLQGIYRVPSSSARVNMLRSQFENNPLLQLHTPEDYENDVHAVADLLKIFFRELREPLIPDNHQRDFIDAGNVEDESRRRDAVHRAINDLPDANYSTIRHLTIHLAKIKENSDVNKMSTNNLAIIWGPTIIKQATIPEISSFSRTIEILIDYCFTIFDYD
# B2: Fim1-mCherry (protein, UniProt O59945 1-614)
# chain: MLALKLQKKYPELTNEEILTLTDQFNKLDVDGKGYLDQPTTIKAFEDSKKGSYDEVREAIREVNVDSSGRVEPEDFVGIFNVLKKGVEGTEVKKGRITIKGSSSSVSHTINEEERREFIKHINSVLAGDPDVGSRVPINTETFEFFDQCKDGLILSKLINDSVPDTIDERVLNKQRNNKPLDNFKCIENNNVVINSAKAMGGISITNIGAGDILEGREHLILGLVWQIIRRGLLGKIDITLHPELYRLLEEDETLDQFLRLPPEKILLRWFNYHLKAANWPRTVSNFSKDVSDGENYTVLLNQLAPELCSRAPLQTTDVLQRAEQVLQNAEKLDCRKYLTPTAMVAGNPKLNLAFVAHLFNTHPGLEPLNEEEKPEIEPFDAEGEREARVFTLWLNSLDVTPSIHDFFNNLRDGLILLQAYDKITPNTVNWKKVNKAPASGDEMMRFKAVENCNYAVDLGKNQGFSLVGIQGADITDGSRTLTLALVWQMMRMNITKTLHSLSRGGKTLSDSDMVAWANSMAAKGGKGSQIRSFRDPSISTGVFVLDVLHGIKSEYVDYNLVTDGSTEELAIQNARLAISIARKLGAVIFILPEDIVAVRPRLVLHFIGSLMAV
# B3: Rng10-mCherry (protein, UniProt Q9P6L9 1-1038)
# chain: MEENTAQKQSNATGLQRHVSGRWISNVPSYEGNEWSSEESESEDKESNLTSSENIGKNPERELNSDGTDRIIEEEEEEDDIENEASSFSEQSENENYDFSYPGTFVYRKAASSSHETLATKVVSADESARLWAEKRRFLLQKLGKDPNSKPIDYKSSMASSSTRSSQSSQVSAIQPQSQDDNRVSDIRQMENRRELNVKRRSVSSPAEDLAIRPLSFSRYKKAEEIPESLPPIKGRDSFSSVRELNESNVFARAPNKNRFSFASVAETGSGSNFSRATSSRSSKTRSVVYEPNHRHTSFFGDTLSNLSSSLNDKKSPNDDHAVLDSELMEQTLPDSAEAVEIANNVKEDIVSTANDDANELDNTSEKATLETSSKPVTEQAIEQSEVVQEVEEGDTNMTTNTILKPTDEIINKGYAYSITSSHSNHSNEKFEQIPSPDEKLSRTDIDTHVKQLQTTKSTDSLSIPFVESPQQNPEEELSDSLSNDFGIDAEKEKDENLSKPEHHPSITSVNSPFLYSPSKQPSGELDEENLKLRLQDSDVDDEVATIRSLKQNNATNSEVETVTNDPSFSQQPGTHSRILRNFDAISSIDSIPDSFSDSAVDLPVDSSKYTLVGKTQSNSNLLQDNAEKHISKSNLEKVDVKGDTSPNSVEQGIEPQAASVVGSPRSSLVSNNSLEEGALLKNSESLESIYGYLSEEPDPALTKLNTEDPFWTKGSSDDEHTIASVEQDVYPYKTSLPTIVEATTSHTESSNSKAPAIEETTTTKVEVVAAHDAVSISSNSSTHKSHSEPLNRDELEVAALSRGSLPEPPKPNKQIVVQEEDQRDTLSLKTSTTGLSSHSKSAENNSTQQSTTSPSINSGASADAVSSGISKKADNSETNLNYFATLDAFVKSPLMSFDGLGELGSTDQRYNFFNQKIQEYSAYDSGLDNWIQFCLEKDGEAPKEAPPPPRSEPVSTTTKLAKRITQPSLSPARSTVTITHNIATEAKKKSKSAANDILHLFKKKAKSEQSNAKSSSSSIKESKKMKTLFGKKLGFKS
# B4: Sec1-tdTomato (protein, UniProt O94590 1-693)
# chain: MTLLELQKELFLSKINSVECATKWKVLIVDTKTADIINHFITIHSLLEEKIAAVEILENPRTPNSSFEALYILHSEEKLVDCILKDEEYDKRYPGIHIVFLDMVKEPLINKLRTSRIASKIRTVQVAYLDFTSLESRYFQVHDSFSGLRLYHPSNAAIIRQELSKVAHGIFSVCVSLGISPNIRCYYPKNAPHASKTMSFILANQLSEIVEEYCSKHPGYHEAASKSTCLIVDRSLDTAAPFLHEFTYQAMIHDLLPIKNEQYPYEILGPQGTEKRTGKLDDDDLVYTTIRHMHMRDAIEKLMKDFNQFCIDNTLFLDKERATSLNDMRSMLAGLSDFQELRDQYSLHLTMAQECMNIFEKQQLNLIGAIEQDLSTGSNVEGKVPRSVLSELLPLLDEGNAEESTKIRLLLLYIIYRDGIILQDLFRLFRHSNLSTSREQIFQNLEQLGTRVIKNLTDQSSKRKEVANSLPAGEDVYELSRYVPTLKVVLENLIQDKLDPELFPYVRNTTPQTEVSMEQTSLRSSRPSWTRSRSMASKLPREKMLVFVAGGTTFSELRTCYELSDKYNKDIYIGSTVCYSPNEWLDFFSKFQQPREALKFPEDKPRHIPCLEARPSPNRIQEQPNIDVPSTRYENTSSSDAVSIHKDEKKSKGKSHKLGKLMMSSKKDKDKSKEKVPTYGTSDKKKKKRFGVF
# B5: Clc1-mCherry (protein, UniProt Q9USP6 1-229)
# chain: MSQFPALEDFDDGLVTAPVDDSKNNTDFLEREKLALGEDAGQFETPEDKDALLNFENDSEAEQTRFEQNFPPIDAEMQASGTFSAPKAPYMGQAEVHPPEDESGDPEPVRKWKEDQMKRIQERDESSKKLRESNIEKARKAIDDFYENFNDKRDKVIAKSRKEQEKLLEENESKSTGTTSWERILKLIDLSDKPEAHGRSTERFRELLISLAKDSNAPGAAGTTVSSSS
# Biological target: T1, 3nmt1-mECitrine-Ync13 (S. pombe)
# Assay: ectopic mistargeting to mitochondria (Tom20-GBP); mEGFP-, GFP- or mECitrine-tagged protein 1 mistargeted to mitochondria by Tom20 tagged with GFP-binding protein (GBP) nanobody in live S. pombe cells; recruitment of tdTomato-, mCherry- or RFP-tagged protein 2 to mitochondria seen by confocal microscopy
row,binding,Binder
1,binds,B1
2,no binding,B2
3,binds,B3
4,binds,B4
5,no binding,B5
